# Source: the supplement of paper PMC9174493
# The other results are listed elsewhere or left out. Single values of this set are uncertain. Values with irradiation are relative to irradiated vehicle.
# Experiments:
# A549-Dual [1] = test: NF-kB reporter (SEAP) activity, viability-corrected, relative to vehicle (fold change vs vehicle); higher = more activation of STING-IRF / NF-kB immune response reporter; details: 10 µM
# A549-Dual [2] = test: ISRE reporter (Lucia luciferase) activity, viability-corrected, relative to vehicle (fold change vs vehicle); higher = more activation of STING-IRF / NF-kB immune response reporter; details: 10 µM
# 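Throughout, for NF-kB reporter (SEAP) activity, viability-corrected, relative to vehicle: viability correction based on the alamar blue assay, with concentrations leaving 10% survival or less dropped.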
SMILES,NF-kB reporter (A549-Dual [1]; irradiation: 8 Gy/4 fr),NF-kB reporter (A549-Dual [1]; irradiation: none),ISRE reporter (A549-Dual [2]; irradiation: 8 Gy/4 fr),ISRE reporter (A549-Dual [2]; irradiation: none)
CCCNC1CCc2nc(N)sc2C1 (configuration not stated) [Pramipexole],0.803,1.14,0.621,0.706
C#CC1(O)CCC2C3CCC4=CCCCC4C3CCC21C (configuration not stated) [Lynestrenol],0.711,0.773,0.544,0.607
NCC(=O)O [Glycine],0.781,0.894,0.784,0.798
CCn1cc(C(=O)O)c(=O)c2cc(F)c(N3CCNCC3)nc21 [Enoxacin],0.673,0.861,0.632,0.68
COC12C(COC(N)=O)C3=C(C(=O)C(C)=C(N)C3=O)N1CC1NC12 (configuration not stated) [Mitomycin C],1.81,3.15,0.387,1.91
CC(O)C1C(=O)N2C(C(=O)O)=C(SC3CNC(C(=O)N(C)C)C3)C(C)C12 (configuration not stated) [Meropenem],0.822,0.937,0.763,0.683
OCCN1CC(O)C(O)C(O)C1CO (configuration not stated) [Miglitol],0.591,0.807,0.578,0.953
C=CC(=O)N1CCCC(n2nc(-c3ccc(Oc4ccccc4)cc3)c3c(N)ncnc32)C1 (configuration not stated),1.25,1.4,0.767,1.26
COCC1=C(C(=O)OC(C)OC(=O)OC(C)C)N2C(=O)C(NC(=O)/C(=N\OC)c3csc(N)n3)C2SC1 (configuration not stated) [Cefpodoxime proxetil],0.854,1.1,0.802,0.753
CCCN(CCc1cccs1)C1CCc2c(O)cccc2C1 (configuration not stated) [Rotigotine],0.828,0.777,0.816,0.951
Cc1ncc(CO)c(CO)c1O.Cl [Pyridoxine HCl],0.708,0.984,0.807,0.809
Cl.Fc1ccc(C2CCNCC2COc2ccc3c(c2)OCO3)cc1 (configuration not stated) [Paroxetine HCl],0.685,0.992,0.794,1.05
OCCc1ccc(O)cc1 [Tyrosol],0.707,0.624,0.827,0.768
Cc1cccc(C#Cc2ccccc2)n1,0.764,1.14,0.426,0.71
CN1C2CCC1CC(OC(=O)c1c[nH]c3ccccc13)C2 (configuration not stated) [Tropisetron],0.868,1.32,0.735,0.698
CCOC(=O)C(CCc1ccccc1)NC1CCc2ccccc2N(CC(=O)O)C1=O (configuration not stated) [Benazepril],0.783,0.77,0.731,0.77
CN(C)CCOC(=O)C(c1ccccc1)C1(O)CCCC1.Cl (configuration not stated) [Cyclopentolate Hydrochloride],0.941,0.752,0.968,0.612
CCCCCOc1ccccc1/C(=C\SC)n1ccnc1.Cl [Neticonazole Hydrochloride],0.282,0.488,0.099,0.279
FC(F)(F)C(Cl)Br (configuration not stated) [Halothane],1.04,1.36,0.91,0.84
COc1ccc2[n-]c(S(=O)Cc3ncc(C)c(OC)c3C)nc2c1.COc1ccc2[n-]c(S(=O)Cc3ncc(C)c(OC)c3C)nc2c1.[Mg+2] (configuration not stated) [NEXIUM (esomeprazole magnesium)],0.71,0.838,0.548,0.66
CN(C)CCCN1c2ccccc2Sc2ccccc21.Cl [Promazine hydrochloride],0.802,1.01,0.99,1.19
CSCCC(N)C(=O)O (racemic) [DL-Methionine],0.988,0.858,0.896,0.807
CCCCOCCOCCOCc1cc2c(cc1CCC)OCO2 [Piperonyl butoxide],0.882,0.727,0.664,0.456
[Cl][Mn][Cl] [Manganese chloride],0.608,0.575,0.78,0.653
CC(CCC(=O)O)C1CCC2C3CC(O)C4CC(O)CCC4(C)C3CCC12C (configuration not stated) [Hyodeoxycholic acid (HDCA)],0.982,0.853,1.03,0.657
C[N+](C)(C)CC(=O)[O-] [Betaine],0.821,0.776,0.655,0.625
CC/C(=C(\c1ccccc1)c1ccc(OCCN(C)C)cc1)c1ccccc1.O=C(O)CC(O)(CC(=O)O)C(=O)O [Tamoxifen Citrate],0.671,1.59,0.72,1.69
COc1ccc(C2Sc3ccccc3N(CCN(C)C)C(=O)C2OC(C)=O)cc1.Cl (configuration not stated) [Diltiazem HCl],0.945,0.983,1.27,1.27
